# Reference: PubChem BioAssay (Tox21)
# Several values for one entry are separate records, joined by “and”; a condition that tells them apart may be missing. Identical values can stand only once. Inconclusive means that the source gave no clear call. Such entries were picked first, then a sample of the others. For part of these data: A potency beside an inconclusive call is a rough fit, not a confirmed value. Activity calls are given as the source filed them. Unless noted, calls come from the whole dose curve; as a rule, active = well fitted curve in the direction sought with a large enough effect in the repeat runs; inconclusive = weak or mixed curves; inactive = no such curve, though single readings can be large; an effect the other way counts as inactive or inconclusive.
# Tests used:
# [1] = qHTS assay to identify small molecule antagonists of the thyroid receptor (TR) signaling pathway - cell viability counter screen (AID 743064); conditions: GH3.TRE-Luc viability, CellTiter-Fluor, 24 h; activity change, negative = cytotoxic: at 70.3 µM (top of the series) unless noted; note: nearly all actives have a fitted effect of over 50% in size; note: potency is the fitted concentration of half-maximal effect; for activity change, negative = cytotoxic: % is set by controls: 0 for no effect and ±100 for the full control effect
# Summary of the method: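 In-well cytotoxicity read by CellTiter-Fluor (30 min, 37 C) following 23.5 h exposure of GH3 cells bearing a TRE-luciferase sensor. Compounds were added alongside 1 nM (final) T3 to drive TR transactivation.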
# [2] = qHTS assay to identify small molecule antagonists of the thyroid receptor (TR) signaling pathway (AID 743065); note: nearly all actives have a fitted effect of over 55% in size; note: potency is the fitted concentration of half-maximal effect
# Summary of the method: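 Antagonism measured as loss of luciferase signal in GH3 cells stably carrying a TRE-luciferase reporter, co-treated with compound and T3 (1 nM final) for 23.5 h at 37 C. Viability was read in the same well by CellTiter-Fluor.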
# [3] = target: Estrogen receptor (Homo sapiens) (UniProt P03372); assay: qHTS assay to identify small molecule agonists of the estrogen receptor alpha (ER-alpha) signaling pathway using the BG1 cell line (AID 743079); conditions: BG1Luc4E2 cells, ERE-luciferase agonist, 22 h; activation: at 70.3 µM (top of the series) unless noted; note: potency is the fitted concentration of half-maximal effect; nearly all actives have a fitted effect of over 20% in size
# Chain of UniProt P03372 (P03372 whole entry, looked up): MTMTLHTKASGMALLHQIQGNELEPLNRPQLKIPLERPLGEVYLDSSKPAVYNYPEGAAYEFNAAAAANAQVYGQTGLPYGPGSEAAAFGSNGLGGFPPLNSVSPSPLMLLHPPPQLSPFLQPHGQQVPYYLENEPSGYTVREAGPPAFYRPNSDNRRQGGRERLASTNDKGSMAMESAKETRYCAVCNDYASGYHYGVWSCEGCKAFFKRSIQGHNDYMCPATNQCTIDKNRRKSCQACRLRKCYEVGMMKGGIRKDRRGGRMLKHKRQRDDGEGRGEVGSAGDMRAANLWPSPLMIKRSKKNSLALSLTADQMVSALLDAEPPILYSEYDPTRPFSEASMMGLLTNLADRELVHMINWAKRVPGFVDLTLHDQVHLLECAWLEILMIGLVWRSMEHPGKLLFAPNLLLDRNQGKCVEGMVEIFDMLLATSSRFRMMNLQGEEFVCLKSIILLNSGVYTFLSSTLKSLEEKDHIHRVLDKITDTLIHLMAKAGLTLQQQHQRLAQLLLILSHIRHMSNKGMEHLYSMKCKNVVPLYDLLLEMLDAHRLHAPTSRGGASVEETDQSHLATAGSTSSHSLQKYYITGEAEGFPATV
# [4] = test system: thyroid hormone receptor (rat, GH3 cells); assay: qHTS assay to identify small molecule agonists of the thyroid receptor (TR) signaling pathway (AID 743066; calls by dose curve; note: % is set by controls: 0 for no effect and ±100 for the full control effect); conditions: GH3.TRE-Luc cells, TR agonist luciferase, 24 h; activation: at 83.9 µM (top of the series) unless noted
# [5] = qHTS assay to identify small molecule antagonists of the estrogen receptor alpha (ER-alpha) signaling pathway - cell viability counter screen (AID 743074; calls by dose curve;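 note: HEK293 cells carrying ER-alpha-UAS-bla reporter stimulated with 17beta-estradiol; % is set by controls: 0 for no effect and ±100 for the full control effect; nearly all actives have a fitted effect of over 45% in size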)
# [6] = qHTS assay to identify small molecule that activate the aryl hydrocarbon receptor (AhR) signaling pathway - cell viability counter screen (AID 743086);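 note: HepG2 liver cells carrying the AhR DRE luciferase reporter; % is set by controls: 0 for no effect and ±100 for the full control effect; nearly all actives have a fitted effect of over 45% in size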
# Summary of the method: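 Cytotoxicity counter screen: CellTiter-Fluor signal (30 min, 37 C) in 4000 HepG2 cells/well carrying the DRE-luciferase reporter, following 24 h compound exposure at 37 C.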
# [7] = target: Estrogen receptor (Homo sapiens) (UniProt P03372); assay: qHTS assay to identify small molecule antagonists of the estrogen receptor alpha (ER-alpha) signaling pathway (AID 743069; active = well fitted curve in the direction sought with a large enough effect in the signal ratio in the repeat runs, not every such curve was filed as active; inconclusive = weak or mixed curves, or effect the other way; inactive = no such curve, though single readings can be large or run the other way; the % refers to the signal ratio; note: potency is the fitted concentration of half-maximal effect); conditions: HEK293 ER-alpha-UAS-bla, beta-lactamase ratio, antagonist mode; activity, negative = inhibition: at 69.4 µM (top of the series) unless noted
# Summary of the method: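 Antagonist mode: compounds in DMSO were co-added with 17beta-estradiol to ER-alpha-bla HEK293 cells (2% charcoal-stripped serum) and left 18 h at 37C. Reporter inhibition was measured as FRET fluorescence after 2 h LiveBLAzer substrate at room temperature.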
# [8] = qHTS assay to identify small molecule antagonists of the estrogen receptor alpha (ER-alpha) signaling pathway using the BG1 cell line (AID 743080; calls by dose curve;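 note: BG1 cells stimulated with 17beta-estradiol alongside compound; % is set by controls: 0 for no effect and ±100 for the full control effect; nearly all actives have a fitted effect of over 25% in size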); conditions: BG1Luc4E2 ERE-luciferase antagonist mode, luminescence; activity change, negative = inhibition: at 70.3 µM (top of the series) unless noted
# Summary of the method: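 Seeding, 24 h rest, compound transfer from DMSO, 17beta-estradiol addition, 21.5 h incubation, CellTiter-Fluor (30 min, 37 C), then ONE-Glo (30 min, room temperature): this sequence was run on BG1-Luc-4E2 reporter cells.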
# [9] = target: Estrogen receptor (Homo sapiens) (UniProt P03372); assay: qHTS assay to identify small molecule agonists of the estrogen receptor alpha (ER-alpha) signaling pathway (AID 743075; calls by dose curve;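 note: HEK293 GripTite cells with ER-alpha and UAS-driven beta-lactamase reporter; % is set by controls: 0 for no effect and ±100 for the full control effect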)
# [10] = qHTS assay to identify small molecule antagonists of the estrogen receptor alpha (ER-alpha) signaling pathway using the BG1 cell line - cell viability counter screen (AID 743081); conditions: BG1Luc4E2 viability, CellTiter-Fluor, 22 h; activity change, negative = cytotoxicity: at 70.3 µM (top of the series);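 note: compound given together with 17beta-estradiol as the ER stimulus; % is set by controls: 0 for no effect and ±100 for the full control effect; nearly all actives have a fitted effect of over 45% in size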
# [11] = target: Peroxisome proliferator-activated receptor gamma (Homo sapiens) (UniProt P37231); assay: qHTS assay to identify small molecule agonists of the peroxisome proliferator-activated receptor gamma (PPARg) signaling pathway (AID 743094; active = well fitted activation curve with a large enough effect in the signal ratio in the repeat runs, not every such curve was filed as active; inconclusive = weak or mixed curves, or effect the other way; inactive = no such curve, though single readings can be large or run the other way; the % refers to the signal ratio; note: % is set by controls: 0 for no effect and ±100 for the full control effect); conditions: HEK293H PPARg-UAS-bla, beta-lactamase FRET ratio, 17 h; activation: at 57 µM (top of the series) unless noted
# Chain of UniProt P37231 (P37231 whole entry, looked up): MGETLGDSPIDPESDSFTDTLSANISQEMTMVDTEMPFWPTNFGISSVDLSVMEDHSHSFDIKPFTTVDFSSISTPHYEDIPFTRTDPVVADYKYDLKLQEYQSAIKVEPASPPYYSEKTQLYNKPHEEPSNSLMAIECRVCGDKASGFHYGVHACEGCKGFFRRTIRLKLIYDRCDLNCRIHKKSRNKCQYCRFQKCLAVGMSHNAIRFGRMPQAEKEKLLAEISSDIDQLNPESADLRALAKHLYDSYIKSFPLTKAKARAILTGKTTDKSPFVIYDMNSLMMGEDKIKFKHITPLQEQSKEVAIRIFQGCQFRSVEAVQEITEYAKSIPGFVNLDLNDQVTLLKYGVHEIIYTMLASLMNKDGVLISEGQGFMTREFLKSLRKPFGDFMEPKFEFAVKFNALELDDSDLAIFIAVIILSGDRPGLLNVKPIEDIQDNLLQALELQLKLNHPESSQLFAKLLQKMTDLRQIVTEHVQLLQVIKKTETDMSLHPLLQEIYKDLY
# Summary of the method: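 Agonist activity was taken from a beta-lactamase reporter (FRET substrate, 1 h at room temperature) in HEK293H cells carrying a PPARg UAS-bla construct. Compounds in DMSO were incubated 17 h at 37C after a 5 h cell pre-incubation.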
# Aromatase (Homo sapiens) = Aromatase (Homo sapiens) (UniProt P11511); assay: qHTS assay to identify aromatase inhibitors (AID 743083); conditions: MCF-7 aro ERE, testosterone-driven ERE luciferase, 24 h; activity, negative = inhibition: at 70.3 µM (top of the series); note: potency is the fitted concentration of half-maximal effect; nearly all actives have a fitted effect of over 55% in size
# Chain of UniProt P11511 (P11511 whole entry, looked up): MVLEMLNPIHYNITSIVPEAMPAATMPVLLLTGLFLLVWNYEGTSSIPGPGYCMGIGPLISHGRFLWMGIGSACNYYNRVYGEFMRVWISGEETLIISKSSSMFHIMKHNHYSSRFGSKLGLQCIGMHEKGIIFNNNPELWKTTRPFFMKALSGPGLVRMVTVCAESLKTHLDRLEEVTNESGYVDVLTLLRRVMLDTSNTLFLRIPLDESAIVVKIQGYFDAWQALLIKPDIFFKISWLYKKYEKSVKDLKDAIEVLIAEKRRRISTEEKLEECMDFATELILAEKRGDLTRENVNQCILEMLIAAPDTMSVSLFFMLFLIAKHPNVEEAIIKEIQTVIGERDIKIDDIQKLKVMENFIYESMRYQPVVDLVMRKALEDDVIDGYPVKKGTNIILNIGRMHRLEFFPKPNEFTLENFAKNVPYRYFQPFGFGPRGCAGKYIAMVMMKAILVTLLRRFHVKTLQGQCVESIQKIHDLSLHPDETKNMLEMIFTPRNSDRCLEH
# Tags give direction and shape of the fitted curve or compound fluorescence and quenching.
structure (smiles),measurement,setting,value
CC(Cl)Cl,Potency,[1],inactive
same,Potency,[2],inactive
same,Potency,[3],"inconclusive: 73.5 µM [activator, single point]"
CC(C)(OO)c1ccccc1,Potency,[1],"inconclusive: 68.6 µM [cytotoxic, single point]"
same,Potency,[2],"inconclusive: 68.6 µM [inhibitor, single point]"
same,activation,[4],inconclusive: 0.771% [phenotype inactive]
same,Potency,[5],inactive
same,Potency,[6],inactive
BrC(Br)C(Br)(Br)Br,Potency,[1],active: 24.5 µM
same,Potency,[2],active: 19.4 µM
same,Potency,[7],"inconclusive: 19.6 µM [rising, partial curve, poor fit]"
same,"activity change, negative = inhibition",[8],inconclusive: -0.157% [at 95 µM]
CCCN(CC1CC1)c1c([N+](=O)[O-])cc(C(F)(F)F)cc1[N+](=O)[O-],Potency,[1],"inconclusive: 77 µM [cytotoxic, single point]"
same,Potency,[2],inconclusive: 68.6 µM [inhibitor]
same,Potency,[9],inactive
same,Potency,[8],inactive
N#CCCC#N,Potency,[1],"inconclusive: 26.7 µM [cytotoxic, partial curve, poor fit]"
same,Potency,[2],"inconclusive: 26.7 µM [inhibitor, single point]"
same,Potency,[10],inactive
same,Potency,[11],inactive
c1ccc2c(c1)sc1ccccc12,Potency,[1],"inconclusive: 29.8 µM [cytotoxic, partial curve, poor fit]"
same,Potency,[2],"inconclusive: 18.8 µM [inhibitor, partial curve, poor fit]"
same,Potency,[7],"inconclusive: 17.4 µM [activator, full curve, poor fit]"
CCC(CC)Nc1c([N+](=O)[O-])cc(C)c(C)c1[N+](=O)[O-],Potency,[1],"inconclusive: 43.8 µM [cytotoxic, single point] and inconclusive: 68.5 µM [cytotoxic, single point]"
same,Potency,[2],"inconclusive: 69.5 µM [inhibitor, single point] and inconclusive: 68.5 µM [inhibitor, single point]"
same,Potency,Aromatase (Homo sapiens),"inconclusive: 69.5 µM [inhibitor, partial curve] and inconclusive: 68.5 µM [inhibitor, single point]"
same,activation,[11],inconclusive: -11% [at 78.9 µM]
